From the RNAGym collection of RNA variant scans (doi:10.7554/elife.90254)
Read counts are not given, so values of variants with three or more changes are uncertain.

B1: LINE1-full (parent)
chain: UACGUAGGUGGUUUUCCCCUGAUAGUGCUAAGGGGGCCUGGAAGUUUGGACUGGGCAGAGCUCAACACAGCGUGGCAAAGUGGCUGUGGCUAGACUGCCUCUCUGGAUUCCUCGUCACUCAGCAGGGCAUCUCUGAGAGAAAUGCC

Variants of: B1
Experiment: self-cleavage, relative activity (ratio to wild type); higher = more cleavage; in vitro, sequencing; the parent is a self-cleaving ribozyme

| Variant | self-cleavage |
| --- | --- |
| UACGUAGGUGGUUUUCCCCUGAUAGUGCUAAGGGGGCCUGGGUGUUUGGACUGGGCAGAGCUCAACACAGCGUGGCAAAGUGGCUGUGGCUAGACUGCCUCUCUGGAUUCCUCGUCACCCAGCAGGGCAUCCCUGAGUGAAAUGCC [A42G A43U U119C U132C A138U] | 2.7 |
| UACGUAGGUGGUUUUCCCCUGAUAGUGCUAAGGGGGCCUGGGAGUUUGGACUGGGCAGUGCUCAACACAGCGUGGCAAAGUGGCUGUGGCUAGACUGCCUCUCUGGAUUCCUCGUCACUCAGCACGGCAUCUCUGAGAGAAAUGCC [A42G A59U G125C] | 1.46 |
| UACGUAGGUGGUUUUCCCCUGAUAGUGCUAAGGGGGCCUGGGGGUUCGGACUGGGCAGAGCUCAACACAGCGUGGCAAAGUGGCUGUGGCUAGACUGCCUCUCUGGGUUCCUCGUCACUCAGCAGGGCAUCUCUGAGAGAAAUGCC [A42G A43G U47C A107G] | 1.84 |
| UACGUAGGUGGUUUUCCCCUGAUAGUGCUAAGGGGGCCUGGGAGUUUGGACUGGGCUGAGCUCAACACAGCGUGGCAAAGUGGCUGUGGCUAGACUGCCUCUCUGGAUUCCUCAUCACUCAGCAGGGCACCUCUGAGAGAAAUGCC [A42G A57U G114A U130C] | 0.13 |
| UACGUAGGUGGUUUUCCCCUGAUAGUGCUAAGGGGGCCUGGGAGUUUGGACUGGGCAGGGCUCAACACAGCGUGGCAAAGUGGCUGUGGCUAGACUGCCUCUCUGGAUUCCUCGUCACUCAGCAGGGCAUCUCUGAGAGAAAUGCU [A42G A59G C146U] | 0.18 |
| UACGUAGGUGGUUUUCCCCUGAUAGUGCUAAGGGGGCCUGGGGGUUUGGACUGGGCGGAGCUCAACACAGCGUGGCAAAGUAGCUGUGGCUAGGCUGCCACUCUGGAUUCCUCGUCACUCAGCAGGGCAUCUCUGAGAGAAAUGCC [A42G A43G A57G G82A A94G U100A] | 0 |
| UACGUAGGUGGUUUUCCCCUGAUAGUGCUAAGGGGGCCUGGGUGUUUGGACUGGGCAGAGCUCAACACAGCGUGGCAAAGUGGCUGUGGCUAGACAGCCUCUCCGGAUUCCUCGUCACUCAGCAGGGCAUCUCUGAGAGAAAUGCC [A42G A43U U96A U104C] | 0.1 |
| UACGUAGGUGGUUUUCCCCUGAUAGUGCUAAGGGGGCCUGGGAGUUUGGACUGGGCGGAGCUCAACACAGCGUGGCGAAGUGGCUGUGGCUUGACUGCCUCUCUGGAUUCCUCGUCACUCAGCAGGGCAUCUCUGAGAGAAAUGCC [A42G A57G A77G A92U] | 0 |
| UACGUAGGUGGUUUUCCCCUGAUAGUGCUAAGGGGGCCUGGGAGUUUGGACUGGGCUGAGCUCAACACAGCGUGGCAAAGUGGCUGUGGCUAGACUGCCUCUCUGGAUUCCUCGUCACUCAGCAGGGCAUCUCCGAGAGAAAUGCC [A42G A57U U134C] | 0.16 |
| UACGUAGGUGGUUUUCCCCUGAUAGUGCUAAGGGGGCCUGGGAGUUUGGGCUGGGCAGAGCUCAACACAGCGUGGCAGAGUGGCUGUGGCUAGACUGCCUCUCUGGAUUCCUCGUCACUCAGCAGGGCAUCUCUGAGAGUAAUGCC [A42G A50G A78G A140U] | 0.97 |
| UACGUAGGUGGUUUUCCCCUGAUAGUGCUAAGGGGGCCUGGCAGUUUGGACUGGGCAGAGCUCAACACAGCGUGGCAAAGAGGCUGUGGCAAGACUGCCUCUCUGGAUUCCUCGUCACUCAGCAGGGCAUCUCUGAGAGAAAUGCC [A42C U81A U91A] | 0.96 |
| UACGUAGGUGGUUUUCCCCUGAUAGUGCUAAGGGGGCCUGGGGGUUUGGACUGGGCAGAGCUCAACACAGCGUAGCAUAGUGGCUGUGGCUAGGCUGCCACUCUGGAUUCCUCGUCACUUAGCAGGGCAUCUCUGAGGGAAAUGCC [A42G A43G G74A A78U A94G U100A C120U A138G] | 0.31 |
| UACGUAGGUGGUUUUCCCCUGAUAGUGCUAAGGGGGCCUGGCAGUUUGGACUGGGCAGAGCUCAACACAGCGAGGCAAAGUGGCUGUGGCUAGGCUGCCUCUCUGGAUACCUCGUCACUCAGCAGGGCAUCUCUGAGAGAAAUGCC [A42C U73A A94G U109A] | 0.06 |
| UACGUAGGUGGUUUUCCCCUGAUAGUGCUAAGGGGGCCUGGGAGUUUGGACUGGGCGGAGCUCAACACAGCGUGGCAAAGUGGCUGUGGCUAGACUGCCUCUCUGGAUUCCUCGUCACCCAACAGGGCAUCUCUGAGAGAAAUGCC [A42G A57G U119C G122A] | 1.31 |
| UACGUAGGUGGUUUUCCCCUGAUAGUGCUAAGGGGGCCUGGGAGUUUGGACUGGGCUGAGCUCAACACAGCGUGGCAAAGUGGCUGUGGCUAGACUGCCUCUCCGGAUACCUCGUCACUCAGCAGGGCAUCUCUGAGAGAAAUGCC [A42G A57U U104C U109A] | 0.12 |
| UACGUAGGUGGUUUUCCCCUGAUAGUGCUAAGGGGGCCUGGGAGUUUGGACUGGGCGGAGCUCAACACAGCGUGGCAAGGUGGCUGGGGCUAGACUGCCUCUCUGGAUUCCUCGUCACUCAGCAGGGCAUCUCUGAGAGAAAUGCC [A42G A57G A79G U87G] | 0 |
| UACGUAGGUGGUUUUCCCCUGAUAGUGCUAAGGGGGCCUGGGAGUUUGGGCUGGGCAGAGCUCAACACAGCGUGGCAAAGUGGCUGUGGCUAGACUGCCUCUCUGGAUUCCUCGACACUCAGCAGGGCAUCUCUGGGAGAAAUGCC [A42G A50G U115A A136G] | 1.53 |
| UACGUAGGUGGUUUUCCCCUGAUAGUGCUAAGGGGGCCUGGGAGUUUGGACUGGGCUGAGCUCAACACAGCGUGGCAAAGUGGCUGUGGCCAGACUGCCUCUCUGGAUUCCUCGUCACUCAGCAGGGCGUCUCUGAGAGAAAUGCC [A42G A57U U91C A129G] | 0.18 |
| UACGUAGGUGGUUUUCCCCUGAUAGUGCUAAGGGGGCCUGGGUGUUUGGACUGGGCAGAGCUCAACACAGCGUGGCAAAGUGGCUGUGGCUAGACUGCCUCUCUGGAUUCCUCGUCGCUCAGCAGGGCAUCUCUGAGAGAAAUGCC [A42G A43U A117G] | 1.37 |
| UACGUAGGUGGUUUUCCCCUGAUAGUGCUAAGGGGGCCUGGGAGUUUGGACUGGGCGGAGCUCAACACAGCGUGGCAAAGUGGCUGUGGCUAGACUGCCUCUCUGGAUUCCUCGUCACUCAGCAGGGCUUCUCUGAGAGAAAUGCC [A42G A57G A129U] | 2.37 |
